{
  "source": "paper PMC12547462",
  "about": "“The serine protease HTRA1 targets tau fibrils and provides a proteolytic barrier against pathogenic protein conformations” (The Journal of Biological Chemistry, 2025)",
  "target": "T1, tau fibrils of recombinant 4R2N tau (441-residue isoform), heparin-induced; sonicated to tau fibril seeds (human, UniProt P10636-8 1-441)",
  "T1 construct": "microtubule associated protein tau, human, 4R2N (2N4R) isoform, printed length 441 residues; the recombinant protein is named as the 441-residue isoform; numbers count on: the 441-residue human tau isoform; Amyloid fibril, many copies of the chain; Cross-linking was done with the sonicated seeds, the activity assay with fibrillar tau; also called tau seeds; fibrillar tau; source: heparin-induced …",
  "experiment": "cross-linking; cross-linking mass spectrometry; 5 uM tau fibril seeds and 5 uM HTRA1 S328A preincubated in 100 mM HEPES, 100 mM NaCl, pH 7.5, 15 min at 37 C; 2 mM PhoX for 15 min, quenched with Tris-HCl; trypsinized",
  "settings": "both partners purified",
  "data": [
    {"binder": "HTRA1^S328A ([…]), Strep-tagged, lacking the N-terminal mac domain (enzyme, serine protease HTRA1, […] (protease and PDZ domains, lacking the N-terminal mac domain); catalytic Ser328 exchanged by Ala) not shown", "values": [
      {"measurement": "binding result", "result": "binds"}
    ]}
  ]
}
